Reference: ChEMBL document CHEMBL5606460, “ASAP - DENV-2 NS2B-NS3 protease fluorescence single point” (2024)
Out of some 2,000 compounds screened, about 110 (5.5%) showed an effect of 50% or more. This is one part of the list.

Target: Genome polyprotein (dengue virus type 2) (UniProt P29990)
[1] = Thailand/16681/1984, Concentration 25.0 uM, Number of replicates 1.0

Compound: O=C(NCC1(c2ccncc2F)CCC1)[C@@]1(c2ccc(F)cc2)CCCNC1
- inhibition (Thailand/16681/1984, Concentration 49.5 uM, Number of replicates 2.0, Standard deviation 0.9074685157350926 %): -2.89%
- inhibition (Thailand/16681/1984, Concentration 99.01 uM, Number of replicates 2.0, Standard deviation 1.7740222143666056 %): -1.32%
- inhibition (Thailand/16681/1984, Concentration 198.0 uM, Number of replicates 2.0, Standard deviation 1.670161679604597 %): -0.296%

Compound: c1cnc2c(C3CCN(Cc4c[nH]c5ncccc45)CC3)c[nH]c2c1
- inhibition (Thailand/16681/1984, Concentration 49.5 uM, Number of replicates 2.0, Standard deviation 3.423355938229839 %): -2.72%
- inhibition (Thailand/16681/1984, Concentration 99.01 uM, Number of replicates 2.0, Standard deviation 3.579980033617295 %): -0.872%
- inhibition (Thailand/16681/1984, Concentration 198.0 uM, Number of replicates 2.0, Standard deviation 3.0314759737683956 %): 1.53%

Compound: CCCC[C@H](NC(C)=O)C(=O)N[C@H](C(=O)Nc1ccc(C(N)=O)cc1)c1ccc(OCc2ccccc2)cc1
- inhibition (Thailand/16681/1984, Concentration 49.5 uM, Number of replicates 2.0, Standard deviation 2.073896751762033 %): -0.623%
- inhibition (Thailand/16681/1984, Concentration 99.01 uM, Number of replicates 2.0, Standard deviation 0.38726109133313447 %): 4.02%
- inhibition (Thailand/16681/1984, Concentration 198.0 uM, Number of replicates 2.0, Standard deviation 0.14852549415239058 %): 23%

Compound: c1cnc2c(C3CCN(Cc4cnn5ccccc45)CC3)c[nH]c2c1
- inhibition (Thailand/16681/1984, Concentration 49.5 uM, Number of replicates 2.0, Standard deviation 1.316281988110152 %): -4.72%
- inhibition (Thailand/16681/1984, Concentration 99.01 uM, Number of replicates 2.0, Standard deviation 2.2605015442223797 %): -3.44%
- inhibition (Thailand/16681/1984, Concentration 198.0 uM, Number of replicates 2.0, Standard deviation 0.9691516929362414 %): -2.08%

Compound: O=C(NC[C@H]1CCCO1)c1cc(Cl)ccc1NS(=O)(=O)c1ccc(Oc2ccccc2Cl)cc1
- inhibition (Thailand/16681/1984, Concentration 49.5 uM, Number of replicates 2.0, Standard deviation 0.11391652520397291 %): 86.2%
- inhibition (Thailand/16681/1984, Concentration 99.01 uM, Number of replicates 2.0, Standard deviation 0.06140357500812747 %): 84.7%
- inhibition (Thailand/16681/1984, Concentration 198.0 uM, Number of replicates 2.0, Standard deviation 0.13037604965923533 %): 79.4%

Compound: O=Cc1ccc(N2CCC(C(=O)NC3CCN(Cc4ccccc4)CC3)CC2)cc1
- inhibition [1]: 14.8%

Compound: NCc1cccc(NC(=O)[C@@H](NC(=O)OCc2ccccc2)C2CCCCC2)c1
- inhibition (Thailand/16681/1984, Concentration 49.5 uM, Number of replicates 2.0, Standard deviation 3.75421470496627 %): -3.1%
- inhibition (Thailand/16681/1984, Concentration 99.01 uM, Number of replicates 2.0, Standard deviation 3.4431804249233626 %): -1.76%
- inhibition (Thailand/16681/1984, Concentration 198.0 uM, Number of replicates 2.0, Standard deviation 6.458747607105988 %): 79.9%

Compound: COc1cccc(CCNC(=O)C2CCN(c3ccc(C=O)cc3)CC2)c1OC
- inhibition [1]: 13.5%

Compound: Cc1cc(N)c2cccc(Br)c2n1
- inhibition (Thailand/16681/1984, Concentration 49.95 uM, Number of replicates 2.0, Standard deviation 5.849609152234285 %): -8.02%
- inhibition (Thailand/16681/1984, Concentration 99.9 uM, Number of replicates 2.0, Standard deviation 5.75747614138947 %): -7.97%

Compound: Cc1ccc(CNC(=O)c2cc(Cl)ccc2NS(=O)(=O)c2ccc(Oc3ccccc3Cl)cc2)s1
- inhibition (Thailand/16681/1984, Concentration 49.5 uM, Number of replicates 2.0, Standard deviation 0.032039697063193553 %): 83.2%
- inhibition (Thailand/16681/1984, Concentration 99.01 uM, Number of replicates 2.0, Standard deviation 0.20602188771616411 %): 78.6%
- inhibition (Thailand/16681/1984, Concentration 198.0 uM, Number of replicates 2.0, Standard deviation 0.539307027447943 %): 69.5%

Compound: CCS(=O)(=O)c1ccc(CNC(=O)C2CCN(c3ccc(C=O)cc3)CC2)cc1
- inhibition [1]: 12.3%

Compound: Cc1c(Cl)ccc(CNCc2nnc3ccccn23)c1O
- inhibition (Thailand/16681/1984, Concentration 49.5 uM, Number of replicates 2.0, Standard deviation 5.8955051683861095 %): 4.07%
- inhibition (Thailand/16681/1984, Concentration 99.01 uM, Number of replicates 2.0, Standard deviation 2.4910858987542683 %): 2.66%
- inhibition (Thailand/16681/1984, Concentration 198.0 uM, Number of replicates 2.0, Standard deviation 4.912359631194546 %): 4.41%

Compound: O=C(Nc1cccc2cccnc12)C1CCNCC1
- inhibition (Thailand/16681/1984, Concentration 49.95 uM, Number of replicates 2.0, Standard deviation 0.4211783883506398 %): -0.871%
- inhibition (Thailand/16681/1984, Concentration 99.9 uM, Number of replicates 2.0, Standard deviation 1.2273405052219766 %): 51.5%

Compound: c1ccc(COC2CCN(Cc3c[nH]c4ccccc34)CC2)cc1
- inhibition (Thailand/16681/1984, Concentration 49.5 uM, Number of replicates 2.0, Standard deviation 1.9694385272729356 %): -2.63%
- inhibition (Thailand/16681/1984, Concentration 99.01 uM, Number of replicates 2.0, Standard deviation 2.1816894241710703 %): -1.85%
- inhibition (Thailand/16681/1984, Concentration 198.0 uM, Number of replicates 2.0, Standard deviation 1.7282646927589878 %): -0.28%

Compound: O=c1[nH]cc(Cl)cc1CN1CC[C@H](c2c[nH]c3ccccc23)C1
- inhibition (Thailand/16681/1984, Concentration 49.5 uM, Number of replicates 2.0, Standard deviation 3.728364673001962 %): -1.21%
- inhibition (Thailand/16681/1984, Concentration 99.01 uM, Number of replicates 2.0, Standard deviation 4.129330739359081 %): -0.318%
- inhibition (Thailand/16681/1984, Concentration 198.0 uM, Number of replicates 2.0, Standard deviation 4.448768616306302 %): 0.518%

Compound: O=Cc1ccc(N2CCC(C(=O)NCCc3ccc4ccccc4c3)CC2)cc1
- inhibition [1]: 12.2%

Compound: Cc1cc(CO)c2cccc(Nc3cc(O)[nH]n3)c2n1
- inhibition (Thailand/16681/1984, Concentration 49.95 uM, Number of replicates 2.0, Standard deviation 1.1262325758678584 %): 32.3%
- inhibition (Thailand/16681/1984, Concentration 99.9 uM, Number of replicates 2.0, Standard deviation 0.556697154318326 %): 51.5%

Compound: O=Cc1ccc(N2CCC(C(=O)NCCc3cc(Cl)ccc3Cl)CC2)cc1
- inhibition [1]: 4.25%

Compound: Cc1cc(CO)c2cccc(Cc3ccccc3NC(=O)c3ccc(-c4ccccn4)s3)c2n1
- inhibition (Thailand/16681/1984, Concentration 49.95 uM, Number of replicates 2.0, Standard deviation 1.6595858552014553 %): -1.78%
- inhibition (Thailand/16681/1984, Concentration 99.9 uM, Number of replicates 2.0, Standard deviation 1.4560320447872408 %): 1.44%

Compound: NCc1cccc(NC(=O)[C@H]2C[C@@H](NC(=O)OCc3ccccc3)C2)c1
- inhibition (Thailand/16681/1984, Concentration 49.5 uM, Number of replicates 2.0, Standard deviation 3.726181466249098 %): -3.83%
- inhibition (Thailand/16681/1984, Concentration 99.01 uM, Number of replicates 2.0, Standard deviation 3.7742381458581895 %): -4.52%
- inhibition (Thailand/16681/1984, Concentration 198.0 uM, Number of replicates 2.0, Standard deviation 3.3297129743902736 %): -5.43%

Compound: O=Cc1ccc(N2CCC(C(=O)NCc3cccc(Cl)c3Cl)CC2)cc1
- inhibition [1]: 13.1%
